Results reported in PubChem BioAssay AID686978 (National Center for Advancing Translational Sciences (NCATS), 2013).
Screen size: about 420,000 compounds; about 64,000 (15%) were called active. Inconclusive means that the source gave no clear call. Such entries were picked first, then a sample of the others. Calls follow the shape of the dose curve; as a rule, active = well fitted inhibition curve with a large enough effect; inconclusive = small, poorly fitted or top-dose-only effect; inactive = flat fitted curve, though single readings scatter. No potency is given beside an inconclusive call; the fits are too rough.

Assay: qHTS for Inhibitors of human tyrosyl-DNA phosphodiesterase 1 (TDP1): qHTS in cells in absence of CPT; also: nearly all actives have a fitted effect of over 55% in size
Conditions: DT40 Tdp1-/- hTDP1 cells, no CPT, ATP luminescence, 48 h; activity change, negative = growth inhibition: at 46.2 µM (top of the series) unless noted
Procedure, shortened: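 Chicken DT40 Tdp1-/- cells complemented with human TDP1, screened without camptothecin (DMSO vehicle only), 400 cells/well. Compounds pin-transferred, cells incubated at 37 °C for at least 48 hr. Growth read as ATP-dependent luminescence (CellTiter-Glo, 30 min at RT).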
% is scaled to controls: 0 for no effect and ±100 for the full control effect; potency is read from the fitted curve at half-maximal effect; tags tell the direction and shape of the fitted curve.

Row | Compound | Potency | activity change, negative = growth inhibition
1 | CCOC(=O)NN1C(=O)c2ccccc2NC1c1cccc(O)c1 (stereo unspecified) | inconclusive [inhibitor, partial curve] | 
2 | O=C(CSc1ccc(-c2ccccn2)nn1)Nc1ccc(F)cc1F | inconclusive [inhibitor, single point] | 
3 | CC(=O)Oc1ccc(-c2nc(-c3ccccc3)no2)cc1 | inconclusive [inhibitor, single point] | 
4 | CN(C)S(=O)(=O)c1cccc(C(=O)NCCNC(=O)c2cccc(S(=O)(=O)N(C)C)c2)c1 |  | inactive: -9.18%
5 | CCN(CC)c1ccc(/C=C2/C(=O)c3ccc(C(=O)O)cc3C2=O)cc1 |  | inactive: 8.02%
6 | O=C(NCCN1CCN(Cc2ccccc2)CC1)Nc1cc(Cl)cc(Cl)c1 | inconclusive [inhibitor, single point] | 
7 | NS(=O)(=O)c1ccc(NC(=O)COc2cccc3ccccc23)cc1 | inconclusive [inhibitor, single point] | 
8 | COc1cc2c(cc1OC)C1C(=O)c3ccc4c(c3OC1CO2)C=CC(C)(C)O4 (stereo unspecified) | active: 0.0651 µM | 
9 | COc1ccc(C2(CNC(=O)c3ccc(N)cc3)CCCC2)cc1 | inconclusive [inhibitor, single point] | 
10 | COC(=O)c1c(NS(=O)(=O)c2ccc3ccccc3c2)sc2c1CCCC2 |  | inactive: -9.32%
11 | COc1ccc(Nc2nc3ccccc3c(=O)[nH]2)cc1 | inconclusive [inhibitor, single point] | 
12 | CC1(C(=O)NS(=O)(=O)c2ccc(Cl)cc2)CCN1C(=O)C1CC1 (stereo unspecified) |  | inactive: -0.273%
13 | Cc1ccc(CN2CCN(C3CCN(C(=O)Nc4ccc(C)cc4Cl)CC3)C(=O)C2=O)cc1 | inconclusive [inhibitor, single point] | 
14 | Cc1ccc(Sc2nc(-c3ccccc3)nnc2C(F)(F)F)cc1 | active: 20.6 µM | 
15 | CC(=O)Nc1ccc(SCC(=O)N(C)CC(=O)Nc2ccccc2Cl)cc1 | inconclusive [inhibitor, single point] | 
16 | CCOc1ccccc1NC(=O)N1CCC(NC(=O)c2cccc(C)c2)CC1 | inconclusive [inhibitor, single point] | 
17 | N#Cc1sc(=O)[nH]c1Cl |  | inactive: -16.6%
18 | CNS(=O)(=O)c1cn(CC(=O)Nc2ccc(C(C)=O)cc2)cc1S(=O)(=O)NC |  | inactive: 0.356%

Row | Compound | Potency | activity change, negative = growth inhibition
19 | Cc1ccc2[nH]c3c(c2c1)CN(C(C)C)CC3 | inconclusive [inhibitor, single point] | 
20 | Cc1cccc(N2C(=O)C(Oc3ccc(Cl)cc3Cl)C2C(=O)O)c1C (stereo unspecified) | inconclusive [inhibitor, single point] | 
21 | O=C(/C(=C/O)N=Nc1ccccc1)c1cccs1 | inconclusive [inhibitor, single point] | 
22 | CCCS(=O)(=O)NC(=O)C1(C)CCN(C(=O)c2ccc3c(c2)OCO3)C1 (stereo unspecified) |  | inactive: -2.58%
23 | CN(C)c1ccnc2sc3c(NCC(O)CO)ncnc3c12 (stereo unspecified) | inconclusive [inhibitor, single point] | 
24 | NC(=O)CC(NC(=O)c1ccccc1)c1ccc(NCc2ccc(F)c(F)c2)c([N+](=O)[O-])c1 (stereo unspecified) | inconclusive [inhibitor, single point] | 
25 | COc1cc(C(=O)Nc2cccc3cccnc23)cc(OC)c1OC | active: 25.9 µM | 
26 | CCOC(=O)CSc1nc2sc3c(c2c(=O)n1-c1ccc(OCC)cc1)CCN(C)C3 | active: 23.1 µM | 
27 | CC(=O)Nc1ccc(NC(=O)CCCN2C(=O)C(c3ccccc3)Oc3cccnc32)cc1 (stereo unspecified) | inconclusive [inhibitor, single point] | 
28 | CCN(Cc1ccccc1)C(=O)C1CCN(Cc2ccc(SC)cc2)CC1 | inconclusive [inhibitor, single point] | 
29 | Cn1c(CO)cnc1SCc1ccc([N+](=O)[O-])cc1 | inconclusive [inhibitor, single point] | 
30 | CC(C)C[C@@H](CO)NS(=O)(=O)c1cc(Cl)ccc1F |  | inactive: 1.58%
31 | O=c1c2cnn(-c3ccccc3)c2ncn1Cc1ccccc1F | inconclusive [inhibitor, single point] | 
32 | Cc1cc(C)cc(OCC(=O)N2N=C(c3cccnc3)CC2(O)C(F)(F)F)c1 (stereo unspecified) | inconclusive [inhibitor, single point] | 
33 | CC(=O)N1CCc2cc(S(=O)(=O)NC(Cc3ccccc3)C(=O)NCc3ccc(C)cc3)ccc21 (stereo unspecified) | inconclusive [inhibitor, single point] | 
34 | COc1ccc2cc(C(c3nnnn3Cc3ccccc3)N3CCCCCC3)c(=O)[nH]c2c1 (stereo unspecified) | inconclusive [inhibitor, single point] | 
35 | COCCOc1ccc(C(F)(F)F)cc1NC(=O)COC(=O)Cc1c[nH]c2ccccc12 |  | inactive: 2.3%
36 | O=C(NN=C1CCCC1)c1ccccc1OCc1ccc(Cl)cc1 | inconclusive [inhibitor, partial curve] | 
